# For some assays here: Shown are results outside the selection of strong results, which stands elsewhere. Only a part is listed here, and it is no random draw.
# How the values were obtained:
# [1] = biological target: T1, Inhibitor of nuclear factor kappa-B kinase subunit epsilon (Homo sapiens) (UniProt Q14164); conditions: at 1 µM;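 also: reported values are averaged percent inhibition figures against human IKKε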
# T1 sequence (whole entry): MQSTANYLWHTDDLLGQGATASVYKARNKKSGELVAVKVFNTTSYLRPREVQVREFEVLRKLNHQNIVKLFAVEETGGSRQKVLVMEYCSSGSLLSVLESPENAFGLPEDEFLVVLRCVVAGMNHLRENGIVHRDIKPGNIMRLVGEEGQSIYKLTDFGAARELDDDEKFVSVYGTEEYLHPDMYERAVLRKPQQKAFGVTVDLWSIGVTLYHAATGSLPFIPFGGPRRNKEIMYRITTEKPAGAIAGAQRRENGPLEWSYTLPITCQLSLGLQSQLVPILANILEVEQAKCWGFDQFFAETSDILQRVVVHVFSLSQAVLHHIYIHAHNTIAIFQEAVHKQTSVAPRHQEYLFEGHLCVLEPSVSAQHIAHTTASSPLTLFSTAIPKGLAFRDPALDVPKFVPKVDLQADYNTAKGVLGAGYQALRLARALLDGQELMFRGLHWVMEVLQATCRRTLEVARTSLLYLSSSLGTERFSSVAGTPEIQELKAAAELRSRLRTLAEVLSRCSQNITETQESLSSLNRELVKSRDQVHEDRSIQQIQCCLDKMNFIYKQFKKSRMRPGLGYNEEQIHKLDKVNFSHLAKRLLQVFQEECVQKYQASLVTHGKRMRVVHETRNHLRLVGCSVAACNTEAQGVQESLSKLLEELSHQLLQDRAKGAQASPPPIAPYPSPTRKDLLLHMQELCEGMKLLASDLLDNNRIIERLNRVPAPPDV
# [2] = biological target: T2, Serine/threonine-protein kinase Nek1 (Homo sapiens) (UniProt Q96PY6); conditions: at 0.1 µM
# T2 sequence (whole entry): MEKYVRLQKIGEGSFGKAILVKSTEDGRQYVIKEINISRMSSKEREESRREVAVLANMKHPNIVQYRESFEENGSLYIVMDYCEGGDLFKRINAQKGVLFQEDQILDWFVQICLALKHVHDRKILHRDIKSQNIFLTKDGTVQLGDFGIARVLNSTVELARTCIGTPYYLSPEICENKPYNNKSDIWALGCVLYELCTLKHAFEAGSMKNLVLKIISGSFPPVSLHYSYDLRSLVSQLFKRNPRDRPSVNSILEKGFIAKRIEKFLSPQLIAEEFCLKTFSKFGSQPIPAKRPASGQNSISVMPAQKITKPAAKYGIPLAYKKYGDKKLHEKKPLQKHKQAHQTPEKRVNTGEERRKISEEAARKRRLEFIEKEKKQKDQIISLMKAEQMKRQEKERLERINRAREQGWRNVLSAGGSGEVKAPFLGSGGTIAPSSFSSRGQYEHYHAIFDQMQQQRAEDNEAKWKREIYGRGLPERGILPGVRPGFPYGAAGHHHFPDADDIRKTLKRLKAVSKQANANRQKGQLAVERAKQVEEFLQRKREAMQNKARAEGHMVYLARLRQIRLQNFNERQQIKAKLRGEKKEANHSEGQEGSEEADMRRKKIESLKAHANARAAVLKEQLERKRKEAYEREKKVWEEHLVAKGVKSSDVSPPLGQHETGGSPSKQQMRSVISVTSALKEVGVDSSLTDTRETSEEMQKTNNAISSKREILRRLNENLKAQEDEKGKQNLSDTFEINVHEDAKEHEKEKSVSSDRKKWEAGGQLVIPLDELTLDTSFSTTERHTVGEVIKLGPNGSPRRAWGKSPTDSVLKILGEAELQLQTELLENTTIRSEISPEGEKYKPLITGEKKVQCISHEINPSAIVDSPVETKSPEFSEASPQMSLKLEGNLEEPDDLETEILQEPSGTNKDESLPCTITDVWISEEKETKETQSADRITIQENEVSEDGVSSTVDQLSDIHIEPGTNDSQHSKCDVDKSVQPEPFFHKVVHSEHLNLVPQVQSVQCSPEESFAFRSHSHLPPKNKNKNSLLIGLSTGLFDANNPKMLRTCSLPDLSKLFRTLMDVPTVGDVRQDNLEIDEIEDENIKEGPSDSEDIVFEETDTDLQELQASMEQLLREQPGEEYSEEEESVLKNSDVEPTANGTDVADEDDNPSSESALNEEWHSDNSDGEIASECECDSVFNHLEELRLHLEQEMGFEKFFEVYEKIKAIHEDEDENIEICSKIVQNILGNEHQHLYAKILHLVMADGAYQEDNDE
# [3] = biological target: T2, Serine/threonine-protein kinase Nek1 (Homo sapiens); conditions: at 1 µM
# [4] = biological target: T3, Serine/threonine-protein kinase Nek2 (Homo sapiens) (UniProt P51955); conditions: at 0.1 µM
# T3 sequence (whole entry): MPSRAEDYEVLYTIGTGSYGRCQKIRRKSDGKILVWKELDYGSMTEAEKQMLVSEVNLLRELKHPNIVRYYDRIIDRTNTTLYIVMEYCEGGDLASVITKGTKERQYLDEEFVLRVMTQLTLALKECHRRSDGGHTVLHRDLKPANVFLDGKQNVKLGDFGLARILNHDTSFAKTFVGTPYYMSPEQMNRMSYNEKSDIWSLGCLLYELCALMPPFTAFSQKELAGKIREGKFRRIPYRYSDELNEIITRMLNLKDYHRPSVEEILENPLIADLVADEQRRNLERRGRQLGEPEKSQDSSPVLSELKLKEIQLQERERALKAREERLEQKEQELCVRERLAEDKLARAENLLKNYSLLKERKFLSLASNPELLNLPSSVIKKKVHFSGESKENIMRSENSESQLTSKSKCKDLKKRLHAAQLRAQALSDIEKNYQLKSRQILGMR
# [5] = biological target: T3, Serine/threonine-protein kinase Nek2 (Homo sapiens); conditions: at 1 µM
# [6] = biological target: T4, Serine/threonine-protein kinase Nek6 (Homo sapiens) (UniProt Q9HC98); conditions: at 0.1 µM
# T4 sequence (whole entry): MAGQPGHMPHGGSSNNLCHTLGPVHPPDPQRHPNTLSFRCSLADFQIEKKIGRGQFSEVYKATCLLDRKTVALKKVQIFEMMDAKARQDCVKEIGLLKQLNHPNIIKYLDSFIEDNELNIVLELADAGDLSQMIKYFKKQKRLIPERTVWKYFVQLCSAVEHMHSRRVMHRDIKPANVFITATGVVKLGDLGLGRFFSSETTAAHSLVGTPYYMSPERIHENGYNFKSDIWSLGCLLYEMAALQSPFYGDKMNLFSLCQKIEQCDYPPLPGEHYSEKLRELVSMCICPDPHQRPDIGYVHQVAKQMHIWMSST
# [7] = biological target: T4, Serine/threonine-protein kinase Nek6 (Homo sapiens); conditions: at 1 µM
# [8] = biological target: Serine/threonine-protein kinase Nek7 (Homo sapiens) (UniProt Q8TDX7); conditions: at 0.1 µM
# [9] = biological target: Serine/threonine-protein kinase Nek7 (Homo sapiens) (UniProt Q8TDX7); conditions: at 1 µM
# [10] = biological target: T5, Serine/threonine-protein kinase Nek9 (Homo sapiens) (UniProt Q8TD19); conditions: at 0.1 µM
# T5 sequence (whole entry): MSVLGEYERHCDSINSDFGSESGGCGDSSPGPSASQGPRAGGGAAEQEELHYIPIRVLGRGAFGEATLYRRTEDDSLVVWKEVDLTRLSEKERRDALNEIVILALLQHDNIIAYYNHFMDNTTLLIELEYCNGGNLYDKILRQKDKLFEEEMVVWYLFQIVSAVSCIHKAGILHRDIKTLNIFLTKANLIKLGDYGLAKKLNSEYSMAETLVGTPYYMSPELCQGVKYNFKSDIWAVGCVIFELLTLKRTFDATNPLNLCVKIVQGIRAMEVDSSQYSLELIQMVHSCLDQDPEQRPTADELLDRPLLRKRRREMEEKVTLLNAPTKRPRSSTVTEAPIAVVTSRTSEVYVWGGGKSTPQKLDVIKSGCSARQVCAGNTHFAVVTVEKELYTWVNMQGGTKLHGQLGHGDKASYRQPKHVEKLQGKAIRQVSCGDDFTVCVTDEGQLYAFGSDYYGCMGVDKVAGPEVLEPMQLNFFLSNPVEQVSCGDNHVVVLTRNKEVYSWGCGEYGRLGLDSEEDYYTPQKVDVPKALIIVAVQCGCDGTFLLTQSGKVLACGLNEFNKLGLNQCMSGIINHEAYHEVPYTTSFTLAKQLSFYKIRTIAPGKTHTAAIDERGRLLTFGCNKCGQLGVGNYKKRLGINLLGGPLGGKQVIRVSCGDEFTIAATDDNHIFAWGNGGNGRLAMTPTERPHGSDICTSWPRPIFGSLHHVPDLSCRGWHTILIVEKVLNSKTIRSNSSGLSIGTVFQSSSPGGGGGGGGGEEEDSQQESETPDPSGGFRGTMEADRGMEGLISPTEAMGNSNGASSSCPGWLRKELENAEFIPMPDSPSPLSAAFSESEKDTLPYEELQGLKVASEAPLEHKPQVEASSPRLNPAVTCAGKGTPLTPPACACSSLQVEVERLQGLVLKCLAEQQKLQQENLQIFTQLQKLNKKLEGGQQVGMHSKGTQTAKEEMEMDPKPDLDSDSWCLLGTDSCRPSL
# [11] = biological target: T5, Serine/threonine-protein kinase Nek9 (Homo sapiens); conditions: at 1 µM
# [12] = biological target: Serine/threonine-protein kinase PLK1 (Homo sapiens) (UniProt P53350); conditions: at 0.1 µM
# [13] = biological target: Serine/threonine-protein kinase PLK1 (Homo sapiens) (UniProt P53350); conditions: at 1 µM
# [14] = biological target: T6, Dual specificity protein kinase TTK (Homo sapiens) (UniProt P33981); conditions: at 0.1 µM
# T6 sequence (whole entry): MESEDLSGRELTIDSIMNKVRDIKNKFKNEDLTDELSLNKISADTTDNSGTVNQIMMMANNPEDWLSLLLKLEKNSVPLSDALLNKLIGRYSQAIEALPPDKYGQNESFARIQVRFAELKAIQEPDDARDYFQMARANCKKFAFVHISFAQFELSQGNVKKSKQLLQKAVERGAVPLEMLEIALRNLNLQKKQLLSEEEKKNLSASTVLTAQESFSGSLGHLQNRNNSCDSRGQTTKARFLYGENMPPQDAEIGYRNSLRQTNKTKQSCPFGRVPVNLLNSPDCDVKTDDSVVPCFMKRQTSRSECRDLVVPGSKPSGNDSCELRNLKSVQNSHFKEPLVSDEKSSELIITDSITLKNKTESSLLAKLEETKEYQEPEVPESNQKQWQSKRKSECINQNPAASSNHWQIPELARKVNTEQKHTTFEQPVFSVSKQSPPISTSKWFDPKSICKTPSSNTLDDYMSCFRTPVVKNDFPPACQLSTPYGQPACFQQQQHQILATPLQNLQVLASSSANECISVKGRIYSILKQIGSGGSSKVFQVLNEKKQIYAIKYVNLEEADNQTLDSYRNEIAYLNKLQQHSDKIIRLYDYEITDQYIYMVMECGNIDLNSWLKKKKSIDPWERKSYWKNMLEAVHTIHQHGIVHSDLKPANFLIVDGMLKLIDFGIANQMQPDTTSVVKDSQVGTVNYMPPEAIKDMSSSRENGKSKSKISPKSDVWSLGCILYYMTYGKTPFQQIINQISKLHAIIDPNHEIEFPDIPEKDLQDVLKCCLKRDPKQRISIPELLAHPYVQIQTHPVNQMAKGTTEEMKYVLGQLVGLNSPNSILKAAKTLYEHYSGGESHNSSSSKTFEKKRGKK
# [15] = test system: T7, Receptor-type tyrosine-protein kinase FLT3 (Homo sapiens), P36888 [D835Y]; conditions: at 1 µM
# T7 sequence (whole entry): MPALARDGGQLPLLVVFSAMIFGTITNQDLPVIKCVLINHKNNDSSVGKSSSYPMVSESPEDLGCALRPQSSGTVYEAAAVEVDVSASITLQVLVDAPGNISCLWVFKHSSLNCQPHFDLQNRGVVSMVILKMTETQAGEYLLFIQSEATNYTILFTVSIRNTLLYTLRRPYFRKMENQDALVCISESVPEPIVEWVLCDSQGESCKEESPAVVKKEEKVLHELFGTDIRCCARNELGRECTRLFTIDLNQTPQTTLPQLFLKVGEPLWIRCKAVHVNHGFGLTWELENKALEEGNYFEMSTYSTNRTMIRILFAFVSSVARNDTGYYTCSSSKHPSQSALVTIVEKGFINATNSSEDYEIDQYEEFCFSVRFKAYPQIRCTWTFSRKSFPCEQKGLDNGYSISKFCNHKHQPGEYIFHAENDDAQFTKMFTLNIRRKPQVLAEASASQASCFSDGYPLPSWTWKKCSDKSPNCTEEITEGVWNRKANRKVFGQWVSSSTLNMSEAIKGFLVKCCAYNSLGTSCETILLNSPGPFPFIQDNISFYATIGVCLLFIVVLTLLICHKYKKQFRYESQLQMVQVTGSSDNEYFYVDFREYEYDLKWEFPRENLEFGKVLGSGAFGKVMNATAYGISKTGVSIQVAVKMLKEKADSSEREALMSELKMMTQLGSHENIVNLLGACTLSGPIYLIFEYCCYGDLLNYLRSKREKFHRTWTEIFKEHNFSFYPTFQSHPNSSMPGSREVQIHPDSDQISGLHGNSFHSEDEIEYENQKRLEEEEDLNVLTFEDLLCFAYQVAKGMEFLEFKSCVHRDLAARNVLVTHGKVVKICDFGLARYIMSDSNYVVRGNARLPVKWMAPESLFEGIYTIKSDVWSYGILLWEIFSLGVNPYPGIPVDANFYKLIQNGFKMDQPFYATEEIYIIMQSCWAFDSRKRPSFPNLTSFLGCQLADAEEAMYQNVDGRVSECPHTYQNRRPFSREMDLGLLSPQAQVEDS
# [16] = biological target: Vascular endothelial growth factor receptor 3 (Homo sapiens) (UniProt P35916); conditions: at 0.1 µM
# [17] = biological target: Vascular endothelial growth factor receptor 3 (Homo sapiens) (UniProt P35916); conditions: at 1 µM
# [18] = biological target: Macrophage colony-stimulating factor 1 receptor (Homo sapiens) (UniProt P07333); conditions: at 0.1 µM
# [19] = biological target: Macrophage colony-stimulating factor 1 receptor (Homo sapiens) (UniProt P07333); conditions: at 1 µM
# [20] = biological target: Tyrosine-protein kinase Fyn (Homo sapiens) (UniProt P06241); conditions: at 0.1 µM
# Sequence of UniProt P06241 (P06241 whole entry, looked up): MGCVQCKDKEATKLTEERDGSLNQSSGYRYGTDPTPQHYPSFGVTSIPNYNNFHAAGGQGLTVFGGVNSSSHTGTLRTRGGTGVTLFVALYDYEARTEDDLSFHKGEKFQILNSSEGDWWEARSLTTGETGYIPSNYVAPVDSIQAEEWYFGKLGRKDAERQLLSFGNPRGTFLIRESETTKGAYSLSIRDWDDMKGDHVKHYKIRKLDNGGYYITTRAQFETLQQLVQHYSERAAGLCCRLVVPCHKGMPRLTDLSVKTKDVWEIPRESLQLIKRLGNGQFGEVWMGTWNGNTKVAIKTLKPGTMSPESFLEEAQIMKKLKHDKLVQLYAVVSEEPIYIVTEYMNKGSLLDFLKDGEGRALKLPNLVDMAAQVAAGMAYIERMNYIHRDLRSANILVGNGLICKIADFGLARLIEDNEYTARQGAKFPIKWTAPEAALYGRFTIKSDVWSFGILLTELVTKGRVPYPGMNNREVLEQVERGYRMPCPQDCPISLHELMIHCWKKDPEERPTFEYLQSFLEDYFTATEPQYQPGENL
# Sequence of UniProt Q8TDX7 (Q8TDX7 whole entry, looked up): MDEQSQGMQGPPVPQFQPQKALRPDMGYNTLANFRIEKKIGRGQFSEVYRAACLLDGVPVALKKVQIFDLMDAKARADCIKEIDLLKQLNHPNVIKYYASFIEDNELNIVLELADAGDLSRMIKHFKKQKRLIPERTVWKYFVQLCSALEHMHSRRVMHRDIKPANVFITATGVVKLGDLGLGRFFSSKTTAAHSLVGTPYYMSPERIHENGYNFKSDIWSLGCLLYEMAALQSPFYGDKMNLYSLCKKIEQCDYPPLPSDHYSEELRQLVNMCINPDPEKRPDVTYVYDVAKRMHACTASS
# Sequence of UniProt P35916 (P35916 whole entry): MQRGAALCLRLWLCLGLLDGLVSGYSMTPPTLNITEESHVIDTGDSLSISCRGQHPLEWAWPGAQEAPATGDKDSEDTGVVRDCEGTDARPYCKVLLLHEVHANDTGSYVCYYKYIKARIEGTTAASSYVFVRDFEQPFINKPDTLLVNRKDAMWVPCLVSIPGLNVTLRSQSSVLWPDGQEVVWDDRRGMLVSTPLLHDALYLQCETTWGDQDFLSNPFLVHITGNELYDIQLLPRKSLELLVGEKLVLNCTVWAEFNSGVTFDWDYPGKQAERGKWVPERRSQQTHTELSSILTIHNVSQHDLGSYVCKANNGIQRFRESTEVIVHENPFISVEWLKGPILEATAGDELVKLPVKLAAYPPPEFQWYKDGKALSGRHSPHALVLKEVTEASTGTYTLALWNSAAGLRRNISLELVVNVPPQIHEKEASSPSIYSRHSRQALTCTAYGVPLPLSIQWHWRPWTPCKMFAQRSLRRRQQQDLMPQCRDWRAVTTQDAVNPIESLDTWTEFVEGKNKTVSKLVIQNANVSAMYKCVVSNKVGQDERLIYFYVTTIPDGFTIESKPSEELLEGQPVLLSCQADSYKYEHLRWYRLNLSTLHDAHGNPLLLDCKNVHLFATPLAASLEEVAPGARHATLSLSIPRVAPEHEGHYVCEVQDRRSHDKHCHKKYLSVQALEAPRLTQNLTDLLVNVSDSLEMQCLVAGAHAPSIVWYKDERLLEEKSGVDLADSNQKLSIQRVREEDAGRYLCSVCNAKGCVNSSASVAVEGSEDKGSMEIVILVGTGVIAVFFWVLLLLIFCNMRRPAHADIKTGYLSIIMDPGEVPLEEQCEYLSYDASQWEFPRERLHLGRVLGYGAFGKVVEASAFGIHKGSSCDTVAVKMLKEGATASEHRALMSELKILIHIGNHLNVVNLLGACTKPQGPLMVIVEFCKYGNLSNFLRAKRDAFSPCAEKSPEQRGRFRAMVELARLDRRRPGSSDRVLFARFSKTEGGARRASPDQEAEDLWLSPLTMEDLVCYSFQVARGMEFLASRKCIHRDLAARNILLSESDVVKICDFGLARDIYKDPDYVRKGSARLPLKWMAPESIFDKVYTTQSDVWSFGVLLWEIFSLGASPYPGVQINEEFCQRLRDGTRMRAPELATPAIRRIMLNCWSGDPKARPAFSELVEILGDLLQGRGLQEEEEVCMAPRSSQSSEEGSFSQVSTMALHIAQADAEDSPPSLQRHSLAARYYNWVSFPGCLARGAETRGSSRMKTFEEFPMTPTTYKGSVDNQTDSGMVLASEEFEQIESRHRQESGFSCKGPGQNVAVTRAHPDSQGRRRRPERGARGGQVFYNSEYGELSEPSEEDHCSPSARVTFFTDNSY
# Sequence of UniProt P07333 (P07333 whole entry): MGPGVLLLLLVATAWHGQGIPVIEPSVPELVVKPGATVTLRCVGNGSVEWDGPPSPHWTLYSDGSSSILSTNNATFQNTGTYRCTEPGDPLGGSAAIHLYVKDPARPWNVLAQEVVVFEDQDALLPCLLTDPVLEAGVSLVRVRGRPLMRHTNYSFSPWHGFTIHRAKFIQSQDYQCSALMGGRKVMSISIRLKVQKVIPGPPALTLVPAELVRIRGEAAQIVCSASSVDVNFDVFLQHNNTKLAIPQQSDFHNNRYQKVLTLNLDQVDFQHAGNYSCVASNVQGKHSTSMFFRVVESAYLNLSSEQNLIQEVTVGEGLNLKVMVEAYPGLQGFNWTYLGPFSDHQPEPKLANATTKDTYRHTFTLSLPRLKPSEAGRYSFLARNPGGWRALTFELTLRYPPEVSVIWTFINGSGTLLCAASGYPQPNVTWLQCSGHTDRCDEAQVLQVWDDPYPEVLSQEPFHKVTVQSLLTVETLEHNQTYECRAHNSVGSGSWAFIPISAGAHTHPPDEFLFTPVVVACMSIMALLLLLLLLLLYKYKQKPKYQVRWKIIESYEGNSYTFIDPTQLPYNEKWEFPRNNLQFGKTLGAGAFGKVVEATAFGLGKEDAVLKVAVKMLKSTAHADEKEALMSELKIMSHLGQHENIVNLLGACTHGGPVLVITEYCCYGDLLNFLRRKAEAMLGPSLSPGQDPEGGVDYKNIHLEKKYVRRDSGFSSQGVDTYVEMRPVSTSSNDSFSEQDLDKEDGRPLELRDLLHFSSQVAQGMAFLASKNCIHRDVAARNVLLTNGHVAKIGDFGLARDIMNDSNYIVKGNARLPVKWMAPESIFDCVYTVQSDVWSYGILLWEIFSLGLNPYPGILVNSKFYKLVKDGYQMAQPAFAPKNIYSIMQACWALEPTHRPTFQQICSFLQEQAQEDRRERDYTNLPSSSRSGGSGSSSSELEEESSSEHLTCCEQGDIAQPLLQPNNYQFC
# Sequence of UniProt P53350 (P53350 whole entry): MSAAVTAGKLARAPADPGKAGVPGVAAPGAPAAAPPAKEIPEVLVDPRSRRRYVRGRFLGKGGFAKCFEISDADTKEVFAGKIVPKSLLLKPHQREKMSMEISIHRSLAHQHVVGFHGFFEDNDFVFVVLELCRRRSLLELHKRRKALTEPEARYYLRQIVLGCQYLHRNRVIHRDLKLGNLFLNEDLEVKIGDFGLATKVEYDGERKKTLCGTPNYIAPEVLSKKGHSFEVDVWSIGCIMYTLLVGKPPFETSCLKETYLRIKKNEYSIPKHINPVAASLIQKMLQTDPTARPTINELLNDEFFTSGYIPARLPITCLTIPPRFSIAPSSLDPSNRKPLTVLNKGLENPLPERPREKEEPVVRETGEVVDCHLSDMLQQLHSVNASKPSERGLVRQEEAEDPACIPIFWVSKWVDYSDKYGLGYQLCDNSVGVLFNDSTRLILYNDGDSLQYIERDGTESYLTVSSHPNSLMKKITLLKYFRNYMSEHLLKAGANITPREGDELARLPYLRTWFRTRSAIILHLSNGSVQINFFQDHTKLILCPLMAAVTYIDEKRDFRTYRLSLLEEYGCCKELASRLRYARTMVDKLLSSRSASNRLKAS
smiles,measurement,setting,value
O=C(O)c1ccc(Oc2nccc(-c3c(-c4ccc(F)cc4)ncn3C3CCNCC3)n2)cc1,inhibition,[1],6.26%
same,inhibition,[2],2.39%
same,inhibition,[3],3.41%
same,inhibition,[4],6.33%
same,inhibition,[5],5.48%
same,inhibition,[6],1.53%
same,inhibition,[7],1.36%
same,inhibition,[8],3.27%
same,inhibition,[9],9.14%
same,inhibition,[10],2.53%
same,inhibition,[11],5.05%
same,inhibition,[12],4.27%
same,inhibition,[13],7.38%
same,inhibition,[14],7.97%
same,inhibition,[15],-3.54%
same,inhibition,[16],11.2%
same,inhibition,[17],15.4%
same,inhibition,[18],7.73%
same,inhibition,[19],4.11%
same,inhibition,[20],2.92%

# Reference: ChEMBL document CHEMBL1961873, “Compounds: GSK PKIS; Assays: Nanosyn kinase panel” (2012)
